± gives the standard deviation of the averaged measurements. Some of the results follow.

In the test the test system is PfAP2-LT AP2 domain (GST-tagged). Put plainly: gcPBM binding intensity (ln(normalized median fluorescence intensity)); higher = stronger DNA binding. The method in brief:
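Alexa488 anti-GST antibody, scanned at 488 nm, detected GST-tagged P. falciparum DNA-binding domains that had been expressed in E. coli and incubated for 1 h on an Agilent 4 × 180k array. The array carried primer-extended double-stranded 36-bp intergenic genomic probes and negative controls. Binding intensity is the highest Masliner-normalised natural-log median intensity across replicate spots of either orientation of each probe.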
As to “TTATAATATCTATATATCTTTTACATTTATAAGTTT [CACACA_negctrl_site1473]”, the “gcPBM binding intensity (ln)” value is 8.56 ± 0.52.
Next, “TATAATAATATTAACACACGTACAAAAGCAAACAAC [CACACA_site3494]”: 9.41 ± 0.27; “ATATATATATTCCACACACACACAAAAAAAAAAAAA [CACACA_site3648]”: 9.57 ± 0.16; “TTTTTTTTTTTTTTTGCACACAGGGTGTAGGACAAG [CACACA_site2842]”: 8.93 ± 0.36.
With “TATGGTGTAATTTAGTGTATTATATTATTTTGGTTG [GTGCAC_negctrl_site445]”, the “gcPBM binding intensity (ln)” value was 8.96 ± 0.49.
Next, “TTAGCTATGATATATACACACCAACGAACGAAGAAA [CACACA_site6657]”: 8.98 ± 0.37.
“GTCTATTCAAAAAAGTGTACGGACATATAAACATAC [XGTACX_site6516]”: the “gcPBM binding intensity (ln)” value was 8.96 ± 0.36.
The value for “TGCAGTCTGGAGAAAAGTACATAGTATCTGGTATCT [XGTACX_site2545]” was 8.83 ± 0.37; that for “AGATATAGGAAAATAATATATATATATTTTTTTTTT [CACACA_negctrl_site461]” was 8.45 ± 0.53; that for “ATATATATATATATATGTACTTATAAGGTATATTTA [XGTACX_site3327]” was 9.38 ± 0.16.
The value for “ATTTATTTATTTATTTGTACATATAAATATATCAAA [XGTACX_site7383]” was 8.54 ± 0.47.
Next, “TATATTTATTTATACACATGCATATTTTAAGGGCTC [TGCATGCA_site885]”: 8.66 ± 0.44.
Regarding “AGTATACAGATATATACACACATATATTTATTTATA [CACACA_site6279]”, the “gcPBM binding intensity (ln)” value stood at 9.07 ± 0.42.
The value for “AAAGATGTTATATATATGTATATATATATGTAATAT [TGCATGCA_negctrl_site386]” was 8.72 ± 0.4; that for “CATATAATTATATATCGTACATATTAATATAATTAC [XGTACX_site401]” was 8.68 ± 0.38.
Consider “TATAACTTTTTTATTACACACCTATGCAATATTATA [CACACA_site6570]”, for which the “gcPBM binding intensity (ln)” value was determined as 8.81 ± 0.39.
The value for “TGGTTAATATGTGAAAGTACATATTATATTAAAATG [XGTACX_site2636]” was 8.52 ± 0.53.
The value for “TACAGATAATATATTGCACACGTCAGAATAATATAG [CACACA_site5036]” was 9.11 ± 0.43; that for “AACAAATAAATAAATAAAAAGCAAATATGTCTATAT [GTGCAC_negctrl_site414]” was 8.96 ± 0.4; that for “ATAAAATAAGATCTTTTTTTTTTTTTTTTCTTTTCT [XGTACX_negctrl_site73]” was 8.29 ± 0.6.
Next, “AATATACAATAAAGGTGTACACATATATGATGCAAG [XGTACX_site7607]”: 9.39 ± 0.31.
For “TTATAATCCATAATTGCACACAATATATTCATATTT [CACACA_site3916]”, the “gcPBM binding intensity (ln)” value worked out at 9.02 ± 0.52.
The value for “AAAAAGAAAAAACTTACACACATATATACAGACATG [CACACA_site550]” was 9.14 ± 0.35.
“AAAAAAAAATAAATAAATATATATAATATTTATGTT [GTGCAC_negctrl_site520]”: the “gcPBM binding intensity (ln)” value stood at 8.4 ± 0.47.
Next, “TTATATATTTATATTTGTACGTATAAATTTTTTTTT [XGTACX_site2833]”: 8.7 ± 0.54.
The value for “AAACAAAGAAAGAACACACATACACAATATACCTAC [CACACA_site2835]” was 9.59 ± 0.3; that for “ATATATGTGTATGTATGTACTCATTTTTGTATATAT [XGTACX_site490]” was 9.02 ± 0.35; that for “ATAATGATATATTATAAACACACAAAGATGAATATA [CACACA_site8914]” was 8.93 ± 0.38.
Next, “CATTTAAATTATAAGTGTACACGATCATATTTCATC [XGTACX_site349]”: 8.79 ± 0.47; “TATTTTGAAAAAGTTGCACACAAAATTTAAAAAAAA [CACACA_site8470]”: 8.68 ± 0.51.
Regarding “TACATTCATGTGTATTGTACAAACTATTTTATAATA [XGTACX_site7744]”, the “gcPBM binding intensity (ln)” value was 8.68 ± 0.34.
The value for “GCATATTTTATAATTTTACACACCATATAAAATAAT [CACACA_site8904]” was 8.79 ± 0.43; that for “TATATAATATATATAGTGCATAAGTTCAAAAGAATA [GTGCAC_site9805]” was 8.84 ± 0.42.
For the sequence “ACAATCCTAACGACATGTACAAATATATATATTTTT [XGTACX_site7335]”, the “gcPBM binding intensity (ln)” value came to 8.9 ± 0.4.
Next, “TACATATTTTTTATGTGTACATATTTTTTATGTGTA [XGTACX_site443]”: 8.92 ± 0.45; “AAATAAAAACATAACAGTACAGTTAACATTTTTATA [XGTACX_site3479]”: 8.71 ± 0.39; “TATATATATATATATGTACACACATATATACCTTTC [CACACA_site8854]”: 10 ± 0.24.
The value for “CCAACATTTTTTAGAAGTACATTTTTATATTTATTA [XGTACX_site5179]” was 8.29 ± 0.45; that for “GATGGAAGGTGAAAGCGTACTTATTATAGTAATATA [XGTACX_site303]” was 8.81 ± 0.42; that for “AGGTACTTTTTTAAAACACACATATAATATATACAC [CACACA_site1065]” was 8.88 ± 0.35.
Next, “TGTAATAATCTTACATGTACATACATATATTATATA [XGTACX_site4012]”: 8.71 ± 0.48; “TTTTTTTTTTTTTCAAGTACATAACTTACCCCTTTT [XGTACX_site6207]”: 8.43 ± 0.6.
For “TTATATGCATAAAAACGTACAAAAATGTATTCATGT [XGTACX_site2215]”, the “gcPBM binding intensity (ln)” value stood at 8.89 ± 0.38.
The value for “AGGATATGCAGACACACACACATATATATATATATA [CACACA_site2201]” was 10.3 ± 0.23; that for “TTTTTTAATAATAGGAAAATGAATATTATATCGAAT [TGCATGCA_negctrl_site543]” was 8.25 ± 0.47.
The value for “GTTATAGAAGCATTCACACACACACCCACATACACA [CACACA_site1465]” was 10.1 ± 0.11; that for “GAATGTTAACGTTGCACACAAAAAAAAAGTATACAT [CACACA_site2415]” was 9.21 ± 0.42.
The value for “AAACGATTACTGTGTACACACATAGTTATAAACATA [CACACA_site5195]” was 9.14 ± 0.45; that for “TTACATAATATATGTACACACGCAAATACTTAGAAT [CACACA_site320]” was 9.12 ± 0.37; that for “ATGGTTAAAAAAAGCATACACACTATCCTCTTTGCT [CACACA_site2552]” was 8.97 ± 0.54.
Take “TTTGTTGACGGACACACACACATACAGATATATATA [CACACA_site5292]”: the “gcPBM binding intensity (ln)” value is 9.4 ± 0.27.
Next, “ATAATAAATTATTATGTACACACATAATAGTATATA [CACACA_site8538]”: 9.04 ± 0.42.
With “TAGATACATAAAAGTGGTACATATATATATATATAT [XGTACX_site6263]”, the “gcPBM binding intensity (ln)” value turned out to be 9.96 ± 0.35.
The value for “AATATTTATATTTACACACACATAATACCTATATGT [CACACA_site6167]” was 9.54 ± 0.34; that for “TGGAAATTCTCAGGAGTGCATATTTGCAGTTTACGT [GTGCAC_site9768]” was 8.89 ± 0.47.
Next, “ATATTTTTTTTTTTTTGTACATATATCATTATATAT [XGTACX_site866]”: 8.97 ± 0.49; “TGGTTACTGTCATTAGTTATTTCTTGTTGACAATTA [CACACA_negctrl_site416]”: 8.79 ± 0.41.
The value for “TTTTTGTCTGCATACGCACACACGTGTACCATCTTA [CACACA_site1173]” was 9.64 ± 0.34; that for “CCGTTGAACATATATGCACACACATAAAATAAAAAA [CACACA_site8761]” was 9.38 ± 0.42; that for “TATTTTTCCATATGCACACACACCGTATCTAGAATA [CACACA_site6654]” was 9.47 ± 0.37.
On to “GGATTTTTCGAATCATGTACATATTTAATTAAAAAA [XGTACX_site7939]”, for which the “gcPBM binding intensity (ln)” value was determined as 8.34 ± 0.45.
Next, “TACATAAACATTTATACACACATTATGTATACATAT [CACACA_site405]”: 9.15 ± 0.4; “TAGAATGTATGTAGTGCACACCTCTATAATATATTA [CACACA_site1873]”: 8.93 ± 0.38; “AACTTTGGCAAACACACACACACACCCACACCCACA [CACACA_site588]”: 10.1 ± 0.42.
The value for “TTCTCACTTTTAAATTTTATTCAAAAATAAGGAAAG [XGTACX_negctrl_site444]” was 7.94 ± 0.3.
The value for “ATATATATATATAAATGTACATATGTATAATTCATA [XGTACX_site6679]” was 9.05 ± 0.39.
Turning to “ATTTCGTTCTTTTATGCACACTCAACATATAAATTA [CACACA_site8322]”, the “gcPBM binding intensity (ln)” value is 8.96 ± 0.33.
Next, “GAGAGTAAAACAAATATACACACCATAAAGTTATAA [CACACA_site1686]”: 9.1 ± 0.49; “TTATATATTTTGATTGCACACAGAATTTAAATCATG [CACACA_site8735]”: 9 ± 0.35; “ATATTTAAGATTTAATCACACACATATATATTATAT [CACACA_site8946]”: 9.02 ± 0.44.
For “ATAAAATAAAGGAAAAATATTAAGTTTTAAGAAAAT [CACACA_negctrl_site1066]”, the “gcPBM binding intensity (ln)” value came out at 8.47 ± 0.53.
The value for “TTTAATCATTTTAGCTTACACACAAAATTTTGTTAT [CACACA_site2938]” was 9.16 ± 0.4.
Regarding “ATATATGTGCTAAAATGTACATAGTATAATATATTT [XGTACX_site1949]”, the “gcPBM binding intensity (ln)” value was 8.96 ± 0.35.
“TTTTTTTTTTGCACGTGTACATAAAAATATATATAT [XGTACX_site3116]”: the “gcPBM binding intensity (ln)” value came out at 8.63 ± 0.45.
The value for “AAAATATATTCAACTTGTACATATATATATATATAT [XGTACX_site7629]” was 9.47 ± 0.16; that for “TTTTTGTAATGACACACACACAAACAGAAAAAATAA [CACACA_site7062]” was 9.29 ± 0.3.
As to “AAAGATTCTTTGAATTGTACAAATATATTTACTCAC [XGTACX_site8772]”, the “gcPBM binding intensity (ln)” value came to 8.68 ± 0.39.
The value for “CAATAATATATATATTGTACATTTTTTTTTATTATT [XGTACX_site3149]” was 8.7 ± 0.38; that for “ATGTTCCATTTTACTTGTACTAATTTTTTCCTATCT [XGTACX_site6474]” was 8.9 ± 0.49.
The value for “TATATTATTTTCTTTTGTACACATATATATCAGTGT [XGTACX_site664]” was 9.24 ± 0.31; that for “ATGATAATTTTTTTCTCACACACAAATATTTTAATC [CACACA_site3665]” was 8.97 ± 0.46.
Next, “TTTTTATTGCAATACTTATATTTTTTTATGATTAAA [TGCATGCA_negctrl_site147]”: 8.64 ± 0.64.
In the case of “ATAATAATAAAGTATGCATGCATATAATATAATATA [TGCATGCA_site796]”, the “gcPBM binding intensity (ln)” value is 9.27 ± 0.3.
The value for “TAAATATTATTATATACATGCACTTACAACTTTTTT [TGCATGCA_site877]” was 8.79 ± 0.54; that for “AAATCACATAAAACATAATCAAATGAAATATAATCA [CACACA_negctrl_site123]” was 8.85 ± 0.42.
For the sequence “ACTGTAAATTTATTCGGTACACATATAAATAATATT [XGTACX_site7346]”, the “gcPBM binding intensity (ln)” value was 8.73 ± 0.48.
Next, “TTAATGGCAAAATAGGCACACACACCGATACATATA [CACACA_site8263]”: 9.62 ± 0.4.
With “ACAGTAGCCAGTAACTGTACGGATTGTAGAGATCAG [XGTACX_site4873]”, the “gcPBM binding intensity (ln)” value is 8.98 ± 0.49.

These data come from the supplement of paper PMC11417369.
